Measurements taken from patent publication US5710249A, “Amino acids and processes for making peptides using same” (The Salk Institute for Biological Studies, priority 1995, dated 1998).
At least one peptide structure holds a part that was inferred or is arguable (an end, a ring closure or a residue). Numbered stars: 1 amine (or outer) side, 2 acyl side, 3 side chain; on linkers, the order of the positions; unused ones are H or OH. Square brackets hold non-standard residues; d marks the D form. Peptide text beside a SMILES is read from it. * marks the point of attachment. X13 = N#CN=C(NCCCC[C@@H](N[*:1])C(=O)[*:2])NCc1ccccn1; X22 = N#CN=C(NCCCC[C@@H](N[*:1])C(=O)[*:2])NCc1ccncc1; X27 = N#CN=C(NCCCC[C@@H](N[*:1])C(=O)[*:2])NCc1cccnc1; X20 = N#CN=C(NCCCC[C@H](N[*:1])C(=O)[*:2])NCc1ccccn1; X21 = N#CN=C(NCCCC[C@H](N[*:1])C(=O)[*:2])NCc1ccncc1; X26 = N#CN=C(NCCCC[C@H](N[*:1])C(=O)[*:2])NCc1cccnc1; X7 = N#CN=C(NCCCC[C@@H](N[*:1])C(=O)[*:2])NC1CCCCC1; X15 = CCCCCCNC(=NC#N)NCCCC[C@@H](N[*:1])C(=O)[*:2]; X6 = N#CN=C(NCCCC[C@H](N[*:1])C(=O)[*:2])NC1CCCCC1; X14 = CCCCCCNC(=NC#N)NCCCC[C@H](N[*:1])C(=O)[*:2]; X25 = CCCNC(=NC#N)NCCCC[C@@H](N[*:1])C(=O)[*:2]; X24 = CCCNC(=NC#N)NCCCC[C@H](N[*:1])C(=O)[*:2]; X10 = CNC(=NC#N)NCCCC[C@@H](N[*:1])C(=O)[*:2]; X3 = CCNC(=NC#N)NCCCC[C@@H](N[*:1])C(=O)[*:2]; X2 = CCNC(=NC#N)NCCCC[C@H](N[*:1])C(=O)[*:2]; X9 = CNC(=NC#N)NCCCC[C@H](N[*:1])C(=O)[*:2]; Triazol3yl(1,2,4-5-NH2) = Nc1nc(*)n[nH]1; dPhe(4-Cl) = N[C@H](Cc1ccc(Cl)cc1)C(=O)O; d2Nal = N[C@H](Cc1ccc2ccccc2c1)C(=O)O; Lys(iPr) = CC(C)NCCCC[C@H](N)C(=O)O; d3Pal = N[C@H](Cc1cccnc1)C(=O)O

Tested on: mature female Sprague-Dawley rats
Assay: in vivo testing of effectiveness to prevent ovulation in female rats
Design: species or system rat
Settings: injected about noon on day of proestrus, rats ovulating/rats treated

With `CNC(=NC#N)NCCCC[C@H](NC(=O)[C@H](CO)NC(=O)[C@@H](Cc1cccnc1)NC(=O)[C@@H](Cc1ccc(Cl)cc1)NC(=O)[C@@H](Cc1ccc2ccccc2c1)NC(C)=O)C(=O)N[C@H](CCCCNC(=NC#N)NC)C(=O)N[C@@H](CC(C)C)C(=O)N[C@@H](CCCCNC(C)C)C(=O)N1CCC[C@H]1C(=O)N[C@H](C)C(N)=O` [Peptide 2] (Ac-[d2Nal][dPhe(4-Cl)][d3Pal]S[X9][X10]L[Lys(iPr)]P[dA]-NH2) the “Rats Ovulating” value (Dosage 2.0 micrograms) was 2/10 and the “Rats Ovulating” value (Dosage 2.5 micrograms) was 6/6.
For `CC(=O)N[C@H](Cc1ccc2ccccc2c1)C(=O)N[C@H](Cc1ccc(Cl)cc1)C(=O)N[C@H](Cc1cccnc1)C(=O)N[C@@H](CO)C(=O)N[C@@H](CCCCNC(=NC#N)NC1CCCCC1)C(=O)N[C@H](CCCCNC(=NC#N)NC1CCCCC1)C(=O)N[C@@H](CC(C)C)C(=O)N[C@@H](CCCCNC(C)C)C(=O)N1CCC[C@H]1C(=O)N[C@H](C)C(N)=O` [Peptide 3] (Ac-[d2Nal][dPhe(4-Cl)][d3Pal]S[X6][X7]L[Lys(iPr)]P[dA]-NH2), the “Rats Ovulating” value (Dosage 2.0 micrograms) was 1/10 and the “Rats Ovulating” value (Dosage 2.5 micrograms) was 7/9.
`CC(=O)N[C@H](Cc1ccc2ccccc2c1)C(=O)N[C@H](Cc1ccc(Cl)cc1)C(=O)N[C@H](Cc1cccnc1)C(=O)N[C@@H](CO)C(=O)N[C@@H](CCCCNc1nc(N)n[nH]1)C(=O)N[C@H](CCCCNc1nc(N)n[nH]1)C(=O)N[C@@H](CC(C)C)C(=O)N[C@@H](CCCCNC(C)C)C(=O)N1CCC[C@H]1C(=O)N[C@H](C)C(N)=O` [Peptide 4] (Ac-[d2Nal][dPhe(4-Cl)][d3Pal]SK(Triazol3yl(1,2,4-5-NH2))[dK](Triazol3yl(1,2,4-5-NH2))L[Lys(iPr)]P[dA]-NH2) was tested, and the “Rats Ovulating” value (Dosage 2.0 micrograms) was 1/10 and the “Rats Ovulating” value (Dosage 2.5 micrograms) was 0/6.
For `CCCNC(=NC#N)NCCCC[C@H](NC(=O)[C@H](CO)NC(=O)[C@@H](Cc1cccnc1)NC(=O)[C@@H](Cc1ccc(Cl)cc1)NC(=O)[C@@H](Cc1ccc2ccccc2c1)NC(C)=O)C(=O)N[C@H](CCCCNC(=NC#N)NCCC)C(=O)N[C@@H](CC(C)C)C(=O)N[C@@H](CCCCNC(C)C)C(=O)N1CCC[C@H]1C(=O)N[C@H](C)C(N)=O` [Peptide 5] (Ac-[d2Nal][dPhe(4-Cl)][d3Pal]S[X24][X25]L[Lys(iPr)]P[dA]-NH2), the “Rats Ovulating” value (Dosage 2.0 micrograms) was 1/10.
For `CC(=O)N[C@H](Cc1ccc2ccccc2c1)C(=O)N[C@H](Cc1ccc(Cl)cc1)C(=O)N[C@H](Cc1cccnc1)C(=O)N[C@@H](CO)C(=O)N[C@@H](CCCCNC(=NC#N)NCc1ccccn1)C(=O)N[C@H](CCCCNC(=NC#N)NCc1ccccn1)C(=O)N[C@@H](CC(C)C)C(=O)N[C@@H](CCCCNC(C)C)C(=O)N1CCC[C@H]1C(=O)N[C@H](C)C(N)=O` [Peptide 6] (Ac-[d2Nal][dPhe(4-Cl)][d3Pal]S[X20][X13]L[Lys(iPr)]P[dA]-NH2), the “Rats Ovulating” value (Dosage 2.5 micrograms) was 0/6.
`CC(=O)N[C@H](Cc1ccc2ccccc2c1)C(=O)N[C@H](Cc1ccc(Cl)cc1)C(=O)N[C@H](Cc1cccnc1)C(=O)N[C@@H](CO)C(=O)N[C@@H](CCCCNC(=NC#N)NCc1cccnc1)C(=O)N[C@H](CCCCNC(=NC#N)NCc1cccnc1)C(=O)N[C@@H](CC(C)C)C(=O)N[C@@H](CCCCNC(C)C)C(=O)N1CCC[C@H]1C(=O)N[C@H](C)C(N)=O` [Peptide 7] (Ac-[d2Nal][dPhe(4-Cl)][d3Pal]S[X26][X27]L[Lys(iPr)]P[dA]-NH2) was tested, and the “Rats Ovulating” value (Dosage 2.5 micrograms) was 3/20.
With `CC(=O)N[C@H](Cc1ccc2ccccc2c1)C(=O)N[C@H](Cc1ccc(Cl)cc1)C(=O)N[C@H](Cc1cccnc1)C(=O)N[C@@H](CO)C(=O)N[C@@H](CCCCNC(=NC#N)NCc1ccncc1)C(=O)N[C@H](CCCCNC(=NC#N)NCc1ccncc1)C(=O)N[C@@H](CC(C)C)C(=O)N[C@@H](CCCCNC(C)C)C(=O)N1CCC[C@H]1C(=O)N[C@H](C)C(N)=O` [Peptide 8] (Ac-[d2Nal][dPhe(4-Cl)][d3Pal]S[X21][X22]L[Lys(iPr)]P[dA]-NH2) the “Rats Ovulating” value (Dosage 1.0 micrograms) was 5/5.
For `CCCCCCNC(=NC#N)NCCCC[C@H](NC(=O)[C@H](CO)NC(=O)[C@@H](Cc1cccnc1)NC(=O)[C@@H](Cc1ccc(Cl)cc1)NC(=O)[C@@H](Cc1ccc2ccccc2c1)NC(C)=O)C(=O)N[C@H](CCCCNC(=NC#N)NCCCCCC)C(=O)N[C@@H](CC(C)C)C(=O)N[C@@H](CCCCNC(C)C)C(=O)N1CCC[C@H]1C(=O)N[C@H](C)C(N)=O` [Peptide 9] (Ac-[d2Nal][dPhe(4-Cl)][d3Pal]S[X14][X15]L[Lys(iPr)]P[dA]-NH2), the “Rats Ovulating” value (Dosage 1.0 micrograms) was 5/5 and the “Rats Ovulating” value (Dosage 2.5 micrograms) was 0/6.
In the case of `CCNC(=NC#N)NCCCC[C@H](NC(=O)[C@H](CO)NC(=O)[C@@H](Cc1cccnc1)NC(=O)[C@@H](Cc1ccc(Cl)cc1)NC(=O)[C@@H](Cc1ccc2ccccc2c1)NC(C)=O)C(=O)N[C@H](CCCCNC(=NC#N)NCC)C(=O)N[C@@H](CC(C)C)C(=O)N[C@@H](CCCCNC(C)C)C(=O)N1CCC[C@H]1C(=O)N[C@H](C)C(N)=O` [Peptide 10] (Ac-[d2Nal][dPhe(4-Cl)][d3Pal]S[X2][X3]L[Lys(iPr)]P[dA]-NH2), the “Rats Ovulating” value (Dosage 2.0 micrograms) is reported as 1/10 and the “Rats Ovulating” value (Dosage 2.5 micrograms) is reported as 5/8.
